Reference: the supplement of paper PMC10037445
Values joined by “and” are separate entries in the source; they are usually repeats but may differ in a detail not shown here. Equal entries are not always repeated. In all, about 2,900 compounds were measured (“IRF Lucia reporter activity, fold change vs agonist alone”: median about 0.9, highest 2% from about 2.8 on). The list shows a part of the results.

Assays:
[1] = system: RAW-Dual; assay: IRF Lucia reporter activity, fold change vs agonist alone; cytotoxicity flag (confluency mask): cytotoxic (confluency <70% of control); higher = enhanced IRF activity
Outline: (§1)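 Supernatant from RAW-Dual macrophages was read after 20 hours for IRF by QuantiLuc luminescence and for NF-κB by QuantiBlue absorbance at 620 nm. The cells (50,000 cells/well in DMEM, 384-well plates, 37 °C, 5% CO2) had received 50 nL of library stock by pin tool and, 1 h later, a PRR agonist. Reporter activity is expressed relative to agonist-alone wells as fold change, and wells were flagged cytotoxic if IncuCyte confluency was under 70% of agonist controls in both mask sets.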

[2] = system: RAW-Dual; assay: IRF Lucia reporter activity, fold change vs agonist alone; higher = enhanced IRF activity; conditions: agonist: MPLA (TLR4) […]
Outline: as §1

[3] = system: RAW-Dual; assay: IRF Lucia reporter activity, fold change vs agonist alone; cytotoxicity flag (confluency mask): not cytotoxic; higher = enhanced IRF activity
Outline: as §1

[4] = agonist: 3'3'-cGAMP (STING) 10 ug/mL
[5] = library stock concentration (final ~1000-fold dilution): 10 mM, cytotoxicity flag (confluency mask): cytotoxic (confluency <70% of control)
[6] = library stock concentration (final ~1000-fold dilution): 10 mM, cytotoxicity flag (confluency mask): not cytotoxic

COc1cc2ncnc(Nc3ccc(F)c(Cl)c3)c2cc1NC(=O)/C=C/CN1CCCCC1 (library stock concentration (final ~1000-fold dilution): 10 mM)
IRF Lucia reporter activity [1, 4]: 0.441 | IRF Lucia reporter activity ([1]; agonist: LPS (TLR4) 0.1 ug/mL): 0.0146

COc1cc2ncnc(Nc3ccc(F)c(Cl)c3)c2cc1NC(=O)/C=C/CN1CCCCC1
IRF Lucia reporter activity [2, 5]: 0.43

CC1=CC(=O)c2ccccc2C1=O (library stock concentration (final ~1000-fold dilution): 10 mM)
IRF Lucia reporter activity [1, 4]: 0.0131 | IRF Lucia reporter activity ([1]; agonist: LPS (TLR4) 0.1 ug/mL): 0.0149

CC1=CC(=O)c2ccccc2C1=O
IRF Lucia reporter activity [2, 5]: 0.0137

N[C@@H](C=O)[C@@H](O)[C@H](O)[C@H](O)CO (library stock concentration (final ~1000-fold dilution): 10 mM)
IRF Lucia reporter activity [3, 4]: 0.749 | IRF Lucia reporter activity ([3]; agonist: LPS (TLR4) 0.1 ug/mL): 0.775

CC(O)C1C(=O)N2C(C(=O)O)=C(SCCNC=N)CC12.O (stereo not given) (library stock concentration (final ~1000-fold dilution): 10 mM water)
IRF Lucia reporter activity [3, 4]: 1.2 | IRF Lucia reporter activity ([3]; agonist: LPS (TLR4) 0.1 ug/mL): 0.897

CC(O)C1C(=O)N2C(C(=O)O)=C(SCCNC=N)CC12.O (stereo not given)
IRF Lucia reporter activity ([2]; library stock concentration (final ~1000-fold dilution): 10 mM water, cytotoxicity flag (confluency mask): not cytotoxic): 1.37

CCCc1nc2c(C)cc(-c3nc4ccccc4n3C)cc2n1Cc1ccc(-c2ccccc2C(=O)O)cc1 (library stock concentration (final ~1000-fold dilution): 10 mM)
IRF Lucia reporter activity [3, 4]: 1.02 | IRF Lucia reporter activity ([3]; agonist: LPS (TLR4) 0.1 ug/mL): 0.971

CCCc1nc2c(C)cc(-c3nc4ccccc4n3C)cc2n1Cc1ccc(-c2ccccc2C(=O)O)cc1
IRF Lucia reporter activity [2, 6]: 0.542

CCc1c2c(nc3ccc(OC(=O)N4CCC(N5CCCCC5)CC4)cc13)-c1cc3c(c(=O)n1C2)COC(=O)C3(O)CC.Cl.O.O.O (stereo not given) (library stock concentration (final ~1000-fold dilution): 10 mM)
IRF Lucia reporter activity [3, 4]: 0.87 | IRF Lucia reporter activity ([3]; agonist: LPS (TLR4) 0.1 ug/mL): 1.1

CCc1c2c(nc3ccc(OC(=O)N4CCC(N5CCCCC5)CC4)cc13)-c1cc3c(c(=O)n1C2)COC(=O)C3(O)CC.Cl.O.O.O (stereo not given)
IRF Lucia reporter activity [2, 6]: 1.15

Cc1ccccc1C(=O)N1CCc2cc(-c3nc(NC(=O)Cc4ccc5c(c4)OCO5)sc3C)ccc21 (library stock concentration (final ~1000-fold dilution): 10 mM)
IRF Lucia reporter activity [3, 4]: 0.982 and 1.01 | IRF Lucia reporter activity ([3]; agonist: LPS (TLR4) 0.1 ug/mL): 0.98 and 0.758

CC(C)(C)c1ccc(S(=O)(=O)NCc2ccc(C(=O)Nc3cccnc3)cc2)cc1 (library stock concentration (final ~1000-fold dilution): 10 mM)
IRF Lucia reporter activity [3, 4]: 0.744 | IRF Lucia reporter activity ([3]; agonist: LPS (TLR4) 0.1 ug/mL): 0.865

COc1c(OC)c2occc2c2oc(=O)ccc12 (library stock concentration (final ~1000-fold dilution): 10 mM)
IRF Lucia reporter activity [3, 4]: 0.684 | IRF Lucia reporter activity ([3]; agonist: LPS (TLR4) 0.1 ug/mL): 0.49

CC1(C)CCC2(C(=O)O)CCC3(C)C(=CCC4C5(C)CCC(=O)C(C)(C)C5CCC43C)C2C1 (stereo not given) (library stock concentration (final ~1000-fold dilution): 10 mM)
IRF Lucia reporter activity [3, 4]: 1.18 | IRF Lucia reporter activity ([3]; agonist: LPS (TLR4) 0.1 ug/mL): 0.631

Cc1cc(N2CCOCC2)cc2[nH]c(-c3c(NCC(O)c4cccc(Cl)c4)cc[nH]c3=O)nc12 (stereo not given) (library stock concentration (final ~1000-fold dilution): 10 mM)
IRF Lucia reporter activity [3, 4]: 0.0144 | IRF Lucia reporter activity ([3]; agonist: LPS (TLR4) 0.1 ug/mL): 0.0267

Cc1cc(N2CCOCC2)cc2[nH]c(-c3c(NCC(O)c4cccc(Cl)c4)cc[nH]c3=O)nc12 (stereo not given)
IRF Lucia reporter activity [2, 6]: 0.0217

NC(=O)NO (library stock concentration (final ~1000-fold dilution): 10 mM)
IRF Lucia reporter activity [3, 4]: 0.994 | IRF Lucia reporter activity ([3]; agonist: LPS (TLR4) 0.1 ug/mL): 0.724

NC(=O)NO
IRF Lucia reporter activity [2, 6]: 0.982

CC12CC3(O)OC(O1)C1(COC(=O)c4ccccc4)C3CC21OC1OC(COC(=O)c2ccccc2)C(O)C(O)C1O (stereo not given) (library stock concentration (final ~1000-fold dilution): 10 mM)
IRF Lucia reporter activity [3, 4]: 0.883 | IRF Lucia reporter activity ([3]; agonist: LPS (TLR4) 0.1 ug/mL): 1.19

Cl.Cl.O=C1c2c(O)ccc(O)c2C(=O)c2c(NCCNCCO)ccc(NCCNCCO)c21 (library stock concentration (final ~1000-fold dilution): 10 mM)
IRF Lucia reporter activity [3, 4]: 1.01 | IRF Lucia reporter activity ([3]; agonist: LPS (TLR4) 0.1 ug/mL): 0.014

Cl.Cl.O=C1c2c(O)ccc(O)c2C(=O)c2c(NCCNCCO)ccc(NCCNCCO)c21
IRF Lucia reporter activity [2, 6]: 1.09

O=C(Nc1ccccc1C(=O)O)c1cc(S(=O)(=O)c2ccccc2)ccc1Cl (library stock concentration (final ~1000-fold dilution): 10 mM)
IRF Lucia reporter activity [3, 4]: 0.783 | IRF Lucia reporter activity ([3]; agonist: LPS (TLR4) 0.1 ug/mL): 0.751

COCCc1ccc(OCC(O)CNC(C)C)cc1.COCCc1ccc(OCC(O)CNC(C)C)cc1.O=C(O)C(O)C(O)C(=O)O (stereo not given) (library stock concentration (final ~1000-fold dilution): 10 mM)
IRF Lucia reporter activity [3, 4]: 1.05 | IRF Lucia reporter activity ([3]; agonist: LPS (TLR4) 0.1 ug/mL): 0.944

COCCc1ccc(OCC(O)CNC(C)C)cc1.COCCc1ccc(OCC(O)CNC(C)C)cc1.O=C(O)C(O)C(O)C(=O)O (stereo not given)
IRF Lucia reporter activity [2, 6]: 0.694

Cc1c(C)c2c(c(C)c1O)CC[C@@](C)(CCC[C@H](C)CCC[C@H](C)CCCC(C)C)O2 (library stock concentration (final ~1000-fold dilution): 10 mM)
IRF Lucia reporter activity [3, 4]: 0.0149 | IRF Lucia reporter activity ([3]; agonist: LPS (TLR4) 0.1 ug/mL): 0.0182

COc1cc2c(cc1OC)CN(CCc1ccc(NC(=O)c3cccc4c(=O)c5cccc(OC)c5[nH]c34)cc1)CC2 (library stock concentration (final ~1000-fold dilution): 10 mM)
IRF Lucia reporter activity [3, 4]: 1.04 | IRF Lucia reporter activity ([3]; agonist: LPS (TLR4) 0.1 ug/mL): 1.42
